A collection of fitness landscapes (doi:10.1016/j.celrep.2020.107928)
Over roughly 81,000 sequences, “one-hybrid fitness for binding parS DNA” has its median near -0.17; the highest 2% begin near 0.51. This is one part of the list.

B1: Caulobacter ParB omega fusion; a variant is named by its letters at X, in order, B8GW30 (parent)
chain: MESVVVGEPGMSEGRRGLGRGLSALLGEVDAAPAQAPGEQLGGSREAPIEILQRNPDQPRRTFREEDLEDLSNSIREKGVLQPILVRPSPDTAGEYQIVAGERAWRAAQRAGLKTVPIMVRELDDLAVLEIGIIENVQRADLNVLEEALSYKVLMEKFERTQENIAQTIGKSXSHVANXMRLLXLPDEVQSYLVSGELTAXHARAIAAAADPVALAKQIIEGGLSVRETEALARKAPNLSAGKSKGGRPPRVKDTDTQALESDLSSVLGLDVSIDHRGSTGTLTITYATLEQLDDLCNRLTRGI

Variants of: B1
Test: one-hybrid fitness for binding parS DNA (scaled: cognate 1, non-cognate 0); higher = stronger binding
Details: with parS DNA site
Summary of the method: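 Bacterial one-hybrid selection in E. coli USO rpoZ- hisB- pyrF- with a HIS3 reporter carrying the site 19 bp from the promoter, screening Caulobacter ParB libraries with four specificity codons randomised (NNS). Cells grew 48 hours at 37°C on M9-minus-histidine plus 0.1 mM IPTG and 5 mM 3-AT. Plasmids before and after selection were Illumina-sequenced, three replicate libraries pooled, and variants under 10 reads dropped. Fitness is the log change in variant-to-wild-type read ratio, rescaled to cognate 1, non-cognate 0.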

Variant | one-hybrid fitness for binding parS DNA
RSLP | ≤ 0.2
QAKF | ≤ 0.2
CHAH | ≤ 0.2
HYEV | ≤ 0.2
AVSA | ≤ 0.2
ERKP | ≤ 0.2
EKEV | ≤ 0.2
RNVD | ≤ 0.2
HIHL | ≤ 0.2
HSKR | ≤ 0.2
GVSL | ≤ 0.2
VKLC | ≤ 0.2
VTGG | ≤ 0.2
ALRA | ≤ 0.2
NWTA | ≤ 0.2
CNTW | ≤ 0.2
NRWT | ≤ 0.2
MRKP | ≤ 0.2
NQFT | ≤ 0.2
NAKL | ≤ 0.2
AVGN | ≤ 0.2
YRTD | ≤ 0.2
PTWD | ≤ 0.2
PLVP | ≤ 0.2
LLEG | ≤ 0.2

Variant | one-hybrid fitness for binding parS DNA
TCAR | ≤ 0.2
NLHG | ≤ 0.2
HILE | ≤ 0.2
RHWH | ≤ 0.2
LWLM | ≤ 0.2
HTSY | ≤ 0.2
MSLC | ≤ 0.2
HTKY | ≤ 0.2
TAPE | ≤ 0.2
QLLD | ≤ 0.2
RWAF | ≤ 0.2
INCS | ≤ 0.2
WVHI | ≤ 0.2
CAST | ≤ 0.2
WMTR | ≤ 0.2
KKYS | ≤ 0.2
HEHA | ≤ 0.2
QKRY | ≤ 0.2
EHWR | ≤ 0.2
VGQW | ≤ 0.2
ELNG | ≤ 0.2
LVHH | ≤ 0.2
ASKN | ≤ 0.2
LLIF | ≤ 0.2
GYNG | ≤ 0.2

Variant | one-hybrid fitness for binding parS DNA
SPVS | ≤ 0.2
KPQW | ≤ 0.2
LGTM | ≤ 0.2
TWSC | ≤ 0.2
GGFS | ≤ 0.2
TADP | ≤ 0.2
PLFV | ≤ 0.2
HVVG | ≤ 0.2
VRFR | ≤ 0.2
SAHC | ≤ 0.2
VTSD | ≤ 0.2
TPEW | ≤ 0.2
GGSN | ≤ 0.2
AREG | ≤ 0.2
SFPE | ≤ 0.2
LRHT | ≤ 0.2
TDGL | ≤ 0.2
AGLI | ≤ 0.2
TAMD | ≤ 0.2
QHIV | ≤ 0.2
RPQG | ≤ 0.2
GLCC | ≤ 0.2
RHAQ | ≤ 0.2
IRRK | ≤ 0.2
WRGT | ≤ 0.2

Variant | one-hybrid fitness for binding parS DNA
PVTW | ≤ 0.2
RIAH | 0.279
CCQG | ≤ 0.2
GPAC | ≤ 0.2
MTKN | ≤ 0.2
PYHL | ≤ 0.2
KMNQ | ≤ 0.2
VNPC | ≤ 0.2
PTCQ | ≤ 0.2
LAFI | ≤ 0.2
PWPW | ≤ 0.2
ATGS | ≤ 0.2
WDSN | ≤ 0.2
SPDD | ≤ 0.2
GVDS | ≤ 0.2
NDVR | ≤ 0.2
QVIR | ≤ 0.2
IMNS | ≤ 0.2
QPFV | ≤ 0.2
QGMY | ≤ 0.2
TRFC | ≤ 0.2
TRIM | ≤ 0.2
LGDY | ≤ 0.2
WNTI | ≤ 0.2
KHPF | ≤ 0.2

Variant | one-hybrid fitness for binding parS DNA
KQPG | ≤ 0.2
QQYE | ≤ 0.2
CCWG | ≤ 0.2
AYMW | ≤ 0.2
NDPC | ≤ 0.2
MPPC | ≤ 0.2
QCKN | ≤ 0.2
DMYR | ≤ 0.2
QTPQ | ≤ 0.2
AYPV | ≤ 0.2
VWIR | ≤ 0.2
PIYF | ≤ 0.2
LNAD | ≤ 0.2
YFSE | ≤ 0.2
LAPV | ≤ 0.2
LKDS | ≤ 0.2
QRVN | ≤ 0.2
VPVY | ≤ 0.2
FSTT | ≤ 0.2
ACGS | ≤ 0.2
YRKL | ≤ 0.2
PDGG | ≤ 0.2
MGFT | 0.389
ATFR | ≤ 0.2
LDML | ≤ 0.2

Variant | one-hybrid fitness for binding parS DNA
AHDT | ≤ 0.2
TEGI | ≤ 0.2
LSIT | ≤ 0.2
EMLC | ≤ 0.2
RHHC | 0.934
SIWT | ≤ 0.2
VCTC | ≤ 0.2
PPWR | ≤ 0.2
RPTS | ≤ 0.2
QTVV | ≤ 0.2
QCME | ≤ 0.2
IYYR | ≤ 0.2
RHVP | ≤ 0.2
ALQF | ≤ 0.2
PPIW | ≤ 0.2
SLSP | ≤ 0.2
CIAS | ≤ 0.2
GLAN | ≤ 0.2
ALDV | ≤ 0.2
KMSG | ≤ 0.2
AMGG | ≤ 0.2
SDAV | ≤ 0.2
FPTV | ≤ 0.2
YIQL | ≤ 0.2
LTTT | ≤ 0.2

Variant | one-hybrid fitness for binding parS DNA
DLIY | ≤ 0.2
CVGG | ≤ 0.2
RIDK | ≤ 0.2
PLAP | ≤ 0.2
SEQT | ≤ 0.2
VLKV | ≤ 0.2
QLLN | ≤ 0.2
EYVR | ≤ 0.2
APAE | ≤ 0.2
TLDS | ≤ 0.2
WTRH | ≤ 0.2
MEYR | ≤ 0.2
YKQS | ≤ 0.2
QCMR | ≤ 0.2
VLNG | ≤ 0.2
TRLE | ≤ 0.2
RCNT | 0.879
AKKM | ≤ 0.2
YYHG | ≤ 0.2
QGIS | ≤ 0.2
RFNV | ≤ 0.2
TGHC | ≤ 0.2
IAMP | ≤ 0.2
KHPK | ≤ 0.2
EARD | ≤ 0.2

Variant | one-hybrid fitness for binding parS DNA
SECR | ≤ 0.2
DFTE | ≤ 0.2
FFRR | ≤ 0.2
RKNL | ≤ 0.2
YKVT | ≤ 0.2
CYYA | ≤ 0.2
NPSL | ≤ 0.2
QWVV | ≤ 0.2
HKTC | ≤ 0.2
FKIG | ≤ 0.2
PALF | ≤ 0.2
MKTT | ≤ 0.2
PQEM | ≤ 0.2
RNPL | ≤ 0.2
RMQS | 1.02
RWRC | 0.895
LRKM | ≤ 0.2
RDTW | ≤ 0.2
VFTL | ≤ 0.2
WVQS | ≤ 0.2
